The record followed here is PubChem BioAssay (NCATS).

The other results are listed elsewhere or left out. The main result of the screen is listed elsewhere. These columns were measured beside it and carry no call. Compounds called inactive in the main read-out are mostly missing here. The note in brackets gives the kind of curve behind each potency; many fits are weak.
Tags describe the fitted curve by direction and shape.

The nature of the test: qHTS Assay for Lipid Storage Modulators (AID 1519). To be noted: Drosophila S3 cells, BODIPY lipid droplet/cell ratio, laser cytometry; measured here: cell number channel AC50; cells loaded with oleic acid. In a few lines:
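Cells seeded at 5,000 per well were treated with compounds over a concentration series and loaded with oleic acid (400 uM, as added). Lipid droplet fluorescence (488 nm excitation, 500-530 nm channel) was read by laser-scanning cytometry and normalized to 20 uM Triacsin C.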
As to `FC(F)(F)c1ccccc1-c1nc(NC2CC2)c2ccccc2n1`, the AC50 was 3550 nM [rising, partial curve, poor fit]. The same measure for `O=c1c(-c2ccccc2)nc2cncnc2n1C1CC1`: 2820 nM [rising, full curve, poor fit]; for `COc1ccc(-c2cc(=O)c3ccc(O)cc3o2)cc1`: 31600 nM [rising, partial curve, poor fit]. Next, `Cc1noc(C)c1-c1nc(Nc2ccccc2)c2ccccc2n1`: 631 nM [rising, full curve]; `COc1ccccc1N1CCN(CCCCNC(=O)c2ccc(-c3ccc(C(C)=O)cc3)cc2)CC1`: 14100 nM [rising, partial curve, poor fit]; `Cn1c(=O)c(CCc2ccccc2)nc2cncnc21`: 3160 nM [rising, partial curve]. The same measure for `COCCNC(=O)COc1ccc(OCCNC[C@@H](O)COc2ccccc2)cc1`: 39800 nM [rising, single point]. As for `Cc1cccc(CNc2ccnc(-c3ccc(N(C)C)cc3)n2)c1`, the concentration at half-maximal activity (AC50) is 35500 nM [falling, single point].

Take `Cc1cnc(CNc2nc(-c3cccc(NS(C)(=O)=O)c3)nc3ccccc23)cn1`: the half-maximal activity concentration (AC50) was 282 nM [rising, full curve]. Next, `COc1cccc(Cn2c(=O)c(-c3ccc(Cl)cc3)nc3cnc(N4CCN(C)CC4)nc32)c1`: 1780 nM [rising, single point]; `c1cn(-c2cc(-c3ccc4c(c3)OCO4)ncn2)cn1`: 1580 nM [rising, full curve, poor fit]. The same measure for `CC(=O)Oc1cc(C(C)C)c(OCCN(C)C)cc1C`: 39800 nM [rising, single point].

`CS(=O)(=O)Nc1cccc(-c2nccc(NCc3cccs3)n2)c1`: the AC50 was 1120 nM [rising, full curve]. The same measure for `OC[C@H]1O[C@@H](OC[C@H]2O[C@@H](O)[C@H](O)[C@@H](O)[C@@H]2O)[C@H](O)[C@@H](O)[C@@H]1O`: 15800 nM [rising, single point]; for `COc1ccc2[nH]cc(CCNc3ccnc(-c4c(C)noc4C)n3)c2c1`: 89.1 nM [rising, full curve, poor fit]; for `COc1ncc2nc(-c3cc(F)cc(F)c3)c(=O)n(C[C@H]3CCCO3)c2n1`: 56.2 nM [rising, full curve, poor fit]. For the compound `Cc1noc(C)c1-c1nc(N2CCN(C)CC2)c2ccccc2n1`, the AC50 is 3550 nM [rising, full curve, poor fit]. The same measure for `Cc1cnc(CNc2ccnc(-c3cccnc3)n2)cn1`: 2240 nM [rising, full curve, poor fit]. Next, `CC(=O)OC1CCC2(C)C3CCC4(C)C(CC5CCCCC54C(C)=O)C3CC(=O)[C@@]2(O)C1` (stereo not given in full): 14100 nM [rising, partial curve, poor fit]; `CC(C)(C)c1cc(O)c(C(C)(C)C)cc1O`: 15800 nM [rising, partial curve, poor fit]. Next, `Cc1ccc(-c2nn(CC(C)(C)C)c3ncnc(N)c23)cc1`: 31600 nM [rising, partial curve, poor fit]. In the case of `COCCn1c(=O)c(-c2cc(F)cc(F)c2)nc2cncnc21`, the AC50 was 10000 nM [rising, partial curve].

On to `CC(C)=CCC/C(C)=C\COc1c2ccoc2cc2oc(=O)ccc12`, for which the AC50 was 1780 nM [rising, full curve]. Regarding `COCCn1c(=O)c(-c2ccc(F)cc2)nc2cnc(OCc3ccccc3)nc21`, the AC50 is 631 nM [rising, full curve, poor fit]. Next, `CN(C)c1ncc2nc(CCc3ccccc3)c(=O)n(C3CC3)c2n1`: 3160 nM [rising, full curve, poor fit]. Turning to `CCNc1ncc2nc(-c3ccc(OC)cc3)c(=O)n(Cc3ccc(F)cc3)c2n1`, the AC50 is 794 nM [rising, partial curve]. Next, `CN(Cc1ccco1)c1ncncc1-c1ccc2c(c1)OCO2`: 891 nM [rising, partial curve]; `Cc1noc(C)c1-c1nccc(NCc2ccccc2)n1`: 5010 nM [rising, full curve, poor fit]; `Cc1ccccc1-c1nc(N2CCN(C)CC2)c2ccccc2n1`: 1120 nM [rising, full curve, poor fit]. The same measure for `COc1cccc(Cn2c(=O)c(-c3ccc(Cl)cc3)nc3cnc(OC)nc32)c1`: 2510 nM [rising, full curve, poor fit].
